Assay results taken from the antibiotic and cytotoxicity screens of Wong et al. (2023).
This is one part of the list.

Legend:
[1] = tested on: HSkMC (human skeletal muscle cells); assay: cytotoxicity call (relative viability < 0.9); settings: 10 µM
[2] = tested on: HepG2; assay: cytotoxicity call (relative viability < 0.9); settings: 10 µM
[3] = tested on: S. aureus RN4220; assay: growth inhibition call (relative growth <= 0.2); settings: 50 µM

Row | SMILES | cytotoxicity call [1] | cytotoxicity call [2] | growth inhibition call [3]
1 | COc1ccc(C#Cc2cnc3c(c2)C(=O)N([C@H](C)CO)C[C@@H](C)[C@@H](CN(C)CC2CCOCC2)O3)cc1 | inactive | inactive | inactive
2 | CC1CCC(NC(=O)N(CCCl)[NH2+][O-])CC1 (stereo not given) | inactive | inactive | inactive
3 | O=C1CCc2cc(OCCCCc3nnnn3C3CCCCC3)ccc2N1 | inactive | inactive | inactive
4 | C[C@@H]1CN([C@@H](C)CO)S(=O)(=O)c2ccc(-c3cccc(F)c3)cc2O[C@@H]1CN(C)S(C)(=O)=O | inactive | inactive | inactive
5 | COc1ccccc1NC(=O)N(C)C[C@H]1Oc2cc(Br)ccc2S(=O)(=O)N([C@H](C)CO)C[C@H]1C | inactive | inactive | inactive
6 | COc1ccc(NC(=O)N(C)C[C@H]2Oc3ccc(NS(=O)(=O)c4cn(C)cn4)cc3C(=O)N([C@@H](C)CO)C[C@H]2C)cc1 | inactive | inactive | inactive
7 | C[C@@H]1CN([C@@H](C)CO)C(=O)c2cc(NC(=O)c3ccccc3)ccc2O[C@@H](C)CCCCO[C@@H]1CN(C)C(=O)Nc1cccc2ccccc12 | inactive | inactive | inactive
8 | COc1cccc(S(=O)(=O)N(C)C[C@H]2Oc3cc(C4=CCCC4)ccc3S(=O)(=O)N([C@@H](C)CO)C[C@@H]2C)c1 | inactive | inactive | inactive
9 | C[C@H]1CN([C@@H](C)CO)C(=O)Cc2cc(NC(=O)Nc3ccc(F)cc3)ccc2O[C@H]1CN(C)Cc1ccc(C(=O)Nc2ccccc2N)cc1 | active | active | inactive
10 | C[C@H]1[C@H]([Si](C)(C)F)[C@@H](CCO)O[C@]12C(=O)N(Cc1cccc(N(C=O)c3ccccc3)c1)c1ccccc12 | inactive | inactive | inactive
